# Measurements taken from the supplement of paper PMC10037445.
# Whole data set: some 2,900 compounds, median “IRF Lucia reporter activity, fold change vs agonist alone” near 0.9, cut for the highest 2% near 2.8. The list shows a part of the results.
# Experiments:
# RAW-Dual [1] = test: IRF Lucia reporter activity, fold change vs agonist alone; higher = enhanced IRF activity; conditions: library stock concentration (final ~1000-fold dilution): 10 mM, agonist: MPLA (TLR4) […]
# Procedure, shortened: (§1)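 RAW-Dual macrophages (50,000 cells/well in DMEM, 384-well plates) received 50 nL of library stock by pin tool, then a PRR agonist 1 h later, and were kept at 37 °C, 5% CO2. After 20 hours, supernatant was read for IRF by QuantiLuc luminescence and for NF-κB by QuantiBlue absorbance at 620 nm. Reporter activity is fold change over agonist-alone wells. Cytotoxic wells had IncuCyte confluency below 70% of agonist controls in both mask sets.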
# RAW-Dual [2] = test: IRF Lucia reporter activity, fold change vs agonist alone; cytotoxicity flag (confluency mask): not cytotoxic; higher = enhanced IRF activity
# Procedure, shortened: as §1
# RAW-Dual [3] = test: IRF Lucia reporter activity, fold change vs agonist alone; cytotoxicity flag (confluency mask): cytotoxic (confluency <70% of control); higher = enhanced IRF activity
# Procedure, shortened: as §1
# [4] = cytotoxicity flag (confluency mask): not cytotoxic
# [5] = agonist: 3'3'-cGAMP (STING) 10 ug/mL
smiles,measurement,setting,value
CC(=O)OC1CC2CCC3C(CCC4(C)C3CC([N+]3(C)CCCCC3)C4OC(C)=O)C2(C)CC1[N+]1(C)CCCCC1 (configuration not stated),IRF Lucia reporter activity,RAW-Dual [1]; [4],0.995
CC(=O)OC1CC2CCC3C(CCC4(C)C3CC([N+]3(C)CCCCC3)C4OC(C)=O)C2(C)CC1[N+]1(C)CCCCC1 (configuration not stated) (library stock concentration (final ~1000-fold dilution): 10 mM),IRF Lucia reporter activity,RAW-Dual [2]; [5],1.02
same,IRF Lucia reporter activity,RAW-Dual [2]; agonist: LPS (TLR4) 0.1 ug/mL,1.08
COc1ccc2c(c1)/C(=C/c1cnc[nH]1)C(=O)N2 (library stock concentration (final ~1000-fold dilution): 10 mM),IRF Lucia reporter activity,RAW-Dual [2]; [5],0.0481
same,IRF Lucia reporter activity,RAW-Dual [2]; agonist: LPS (TLR4) 0.1 ug/mL,0.0276
COc1ccc2c(c1)[nH]c1c(C)nccc12,IRF Lucia reporter activity,RAW-Dual [1]; [4],0.143
COc1ccc2c(c1)[nH]c1c(C)nccc12 (library stock concentration (final ~1000-fold dilution): 10 mM),IRF Lucia reporter activity,RAW-Dual [2]; [5],0.238
same,IRF Lucia reporter activity,RAW-Dual [2]; agonist: LPS (TLR4) 0.1 ug/mL,0.158
COC12CC(COC(=O)c3cncc(Br)c3)CN(C)C1Cc1cn(C)c3cccc2c13 (configuration not stated) (library stock concentration (final ~1000-fold dilution): 10 mM),IRF Lucia reporter activity,RAW-Dual [2]; [5],0.646
same,IRF Lucia reporter activity,RAW-Dual [2]; agonist: LPS (TLR4) 0.1 ug/mL,1.62
COC12CC(COC(=O)c3cncc(Br)c3)CN(C)C1Cc1cn(C)c3cccc2c13 (configuration not stated),IRF Lucia reporter activity,RAW-Dual [1]; [4],1.47
CN(C)NC(=O)CCC(=O)O,IRF Lucia reporter activity,RAW-Dual [1]; [4],0.986
CN(C)NC(=O)CCC(=O)O (library stock concentration (final ~1000-fold dilution): 10 mM),IRF Lucia reporter activity,RAW-Dual [2]; [5],0.969
same,IRF Lucia reporter activity,RAW-Dual [2]; agonist: LPS (TLR4) 0.1 ug/mL,0.898
CCC1=CC2CN3CCc4c([nH]c5ccccc45)C(C(=O)OC)(C2)C13.O=C(O)C(O)C(O)C(=O)O (configuration not stated) (library stock concentration (final ~1000-fold dilution): 10 mM),IRF Lucia reporter activity,RAW-Dual [2]; [5],0.635
same,IRF Lucia reporter activity,RAW-Dual [2]; agonist: LPS (TLR4) 0.1 ug/mL,1.33
O=[N+]([O-])/C=C/c1ccc2c(c1)OCO2,IRF Lucia reporter activity,RAW-Dual [1]; cytotoxicity flag (confluency mask): cytotoxic (confluency <70% of control),0.0354
O=[N+]([O-])/C=C/c1ccc2c(c1)OCO2 (library stock concentration (final ~1000-fold dilution): 10 mM),IRF Lucia reporter activity,RAW-Dual [3]; [5],0.0523
same,IRF Lucia reporter activity,RAW-Dual [3]; agonist: LPS (TLR4) 0.1 ug/mL,0.0242
CC(C)N(CCC(C(N)=O)(c1ccccc1)c1ccccn1)C(C)C (configuration not stated) (library stock concentration (final ~1000-fold dilution): 10 mM),IRF Lucia reporter activity,RAW-Dual [2]; [5],1
same,IRF Lucia reporter activity,RAW-Dual [2]; agonist: LPS (TLR4) 0.1 ug/mL,1.13
CC(C)N(CCC(C(N)=O)(c1ccccc1)c1ccccn1)C(C)C (configuration not stated),IRF Lucia reporter activity,RAW-Dual [1]; [4],1.03
COc1ccc(CN2CCNCC2)c(OC)c1OC.Cl.Cl,IRF Lucia reporter activity,RAW-Dual [1]; [4],1.09
COc1ccc(CN2CCNCC2)c(OC)c1OC.Cl.Cl (library stock concentration (final ~1000-fold dilution): 10 mM),IRF Lucia reporter activity,RAW-Dual [2]; [5],1.15
same,IRF Lucia reporter activity,RAW-Dual [2]; agonist: LPS (TLR4) 0.1 ug/mL,1
C=C1CC2C(CCC3(C)C(=O)CCC23)C2(C)C=CC(=O)C=C12 (configuration not stated) (library stock concentration (final ~1000-fold dilution): 10 mM),IRF Lucia reporter activity,RAW-Dual [2]; [5],0.704
same,IRF Lucia reporter activity,RAW-Dual [2]; agonist: LPS (TLR4) 0.1 ug/mL,1.02
C=C1CC2C(CCC3(C)C(=O)CCC23)C2(C)C=CC(=O)C=C12 (configuration not stated),IRF Lucia reporter activity,RAW-Dual [1]; [4],1.27
CCCCCCC[n+]1ccc(-c2cc[n+](CCCCCCC)cc2)cc1 (library stock concentration (final ~1000-fold dilution): 10 mM),IRF Lucia reporter activity,RAW-Dual [2]; [5],0.953
same,IRF Lucia reporter activity,RAW-Dual [2]; agonist: LPS (TLR4) 0.1 ug/mL,1.08
CCCCCCC[n+]1ccc(-c2cc[n+](CCCCCCC)cc2)cc1,IRF Lucia reporter activity,RAW-Dual [1]; [4],0.9
CC(C)=CCOc1c2occc2cc2ccc(=O)oc12 (library stock concentration (final ~1000-fold dilution): 10 mM),IRF Lucia reporter activity,RAW-Dual [2]; [5],1.4
same,IRF Lucia reporter activity,RAW-Dual [2]; agonist: LPS (TLR4) 0.1 ug/mL,1.5
CC(C)=CCOc1c2occc2cc2ccc(=O)oc12,IRF Lucia reporter activity,RAW-Dual [1]; [4],1.4
O=c1ccc2ccc3occc3c2o1,IRF Lucia reporter activity,RAW-Dual [1]; [4],1.03
O=c1ccc2ccc3occc3c2o1 (library stock concentration (final ~1000-fold dilution): 10 mM),IRF Lucia reporter activity,RAW-Dual [2]; [5],1.02
same,IRF Lucia reporter activity,RAW-Dual [2]; agonist: LPS (TLR4) 0.1 ug/mL,1.07
COc1ccc(/C=C/c2cc(OC)cc(OC)c2)cc1 (library stock concentration (final ~1000-fold dilution): 10 mM),IRF Lucia reporter activity,RAW-Dual [2]; [5],0.395
same,IRF Lucia reporter activity,RAW-Dual [2]; agonist: LPS (TLR4) 0.1 ug/mL,0.965
COc1cc(C)[nH]c(=O)c1CNC(=O)c1c(C)n(C(C)C2CCN(CC(F)(F)F)CC2)c2ccccc12 (configuration not stated) (library stock concentration (final ~1000-fold dilution): 10 mM),IRF Lucia reporter activity,RAW-Dual [2]; [5],1.08
same,IRF Lucia reporter activity,RAW-Dual [2]; agonist: LPS (TLR4) 0.1 ug/mL,0.858
CC12CCC3C(CCC4=C(O)C(=O)CCC43C)C1CCC2=O (configuration not stated) (library stock concentration (final ~1000-fold dilution): 10 mM),IRF Lucia reporter activity,RAW-Dual [2]; [5],1.06
same,IRF Lucia reporter activity,RAW-Dual [2]; agonist: LPS (TLR4) 0.1 ug/mL,0.91
CC12CCC3C(CCC4=C(O)C(=O)CCC43C)C1CCC2=O (configuration not stated),IRF Lucia reporter activity,RAW-Dual [1]; [4],0.971
CC1=C(O)C(=O)C=C2C1=CC=C1C2(C)CCC2(C)C3CC(C)(C(=O)O)CCC3(C)CCC12C (configuration not stated),IRF Lucia reporter activity,RAW-Dual [1]; [4],0.0189
CC1=C(O)C(=O)C=C2C1=CC=C1C2(C)CCC2(C)C3CC(C)(C(=O)O)CCC3(C)CCC12C (configuration not stated) (library stock concentration (final ~1000-fold dilution): 10 mM),IRF Lucia reporter activity,RAW-Dual [2]; [5],0.011
same,IRF Lucia reporter activity,RAW-Dual [2]; agonist: LPS (TLR4) 0.1 ug/mL,0.0187
